Results: US20130130922A1, “ANALYSIS OF METHYLATION SITES” (Centre for Addiction and Mental Health, priority 2011, published 2013)

Test system: DNA
Assay: Transalkylation activity of engineered MTases with synthetic AdoMet analogs
Settings: double-alanine mutant vs original His6 tagged variant
Description: The other two MTases, M.HpaII and M.SssI, were subcloned as His6-tagged variants, and the purification procedures for obtaining AdoMet-free enzymes were established. In the second step, appropriate changes were produced, by site-directed mutagenesis, in the HpaII (Q104A/N335A) and SssI (Q142A/N370A) MTases, and the double-alanine mutants were obtained in a similar fashion.
The analysis was done as described above.

SssI (Q142A/N370A): His6-tagged M.SssI C5 DNA methyltransferase (CG target site) double-alanine mutant Q142A/N370A
increase in transalkylation activity with synthetic AdoMet analogs as compared to the original His6 tagged variant: ~2 orders of magnitude
